Experimental data taken from PubChem BioAssay AID1460 (National Center for Advancing Translational Sciences (NCATS), 2008).
Where “and” joins values, the source holds several entries; their conditions need not be identical. Identical values can stand only once. The campaign covered roughly 270,000 compounds. About 5,800 (2.1%) were called active. This list was built around the results that the source calls inconclusive (neither active nor inactive); the mix of calls is not that of the screen. Calls come from the whole dose curve; as a rule, active = well fitted inhibition curve with a large enough effect; inconclusive = small, poorly fitted or top-dose-only effect; inactive = flat fitted curve, though single readings scatter. A potency beside an inconclusive call is a rough fit, not a confirmed value.

Biological target: Microtubule-associated protein tau (Homo sapiens) (UniProt P10636)
Assay: qHTS for Inhibitors of Tau Fibril Formation, Thioflavin T Binding; note: nearly all actives have a fitted effect of over 55% in size
Details: recombinant tau K18 P301L (four-repeat tau fragment), heparin-induced fibrillization, ThT fluorescence; series mostly up to 57.4 µM; activity, negative = inhibition: at the top concentration
Procedure, shortened: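 Recombinant human tau K18 fragment […] carrying P301L, 15 uM unlabeled plus 0.24 uM Alexa 594-labeled, was fibrillized with 20 uM heparin in 100 mM sodium acetate pH 7 for 6 hr at 37 C; 30 uM ThT fluorescence read after 1 hr.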
% is set by controls: 0 for no effect and ±100 for the full control effect; potency is the fitted concentration of half-maximal effect; tags give direction and shape of the fitted curve.

Sequence of UniProt P10636 (P10636 whole entry, looked up): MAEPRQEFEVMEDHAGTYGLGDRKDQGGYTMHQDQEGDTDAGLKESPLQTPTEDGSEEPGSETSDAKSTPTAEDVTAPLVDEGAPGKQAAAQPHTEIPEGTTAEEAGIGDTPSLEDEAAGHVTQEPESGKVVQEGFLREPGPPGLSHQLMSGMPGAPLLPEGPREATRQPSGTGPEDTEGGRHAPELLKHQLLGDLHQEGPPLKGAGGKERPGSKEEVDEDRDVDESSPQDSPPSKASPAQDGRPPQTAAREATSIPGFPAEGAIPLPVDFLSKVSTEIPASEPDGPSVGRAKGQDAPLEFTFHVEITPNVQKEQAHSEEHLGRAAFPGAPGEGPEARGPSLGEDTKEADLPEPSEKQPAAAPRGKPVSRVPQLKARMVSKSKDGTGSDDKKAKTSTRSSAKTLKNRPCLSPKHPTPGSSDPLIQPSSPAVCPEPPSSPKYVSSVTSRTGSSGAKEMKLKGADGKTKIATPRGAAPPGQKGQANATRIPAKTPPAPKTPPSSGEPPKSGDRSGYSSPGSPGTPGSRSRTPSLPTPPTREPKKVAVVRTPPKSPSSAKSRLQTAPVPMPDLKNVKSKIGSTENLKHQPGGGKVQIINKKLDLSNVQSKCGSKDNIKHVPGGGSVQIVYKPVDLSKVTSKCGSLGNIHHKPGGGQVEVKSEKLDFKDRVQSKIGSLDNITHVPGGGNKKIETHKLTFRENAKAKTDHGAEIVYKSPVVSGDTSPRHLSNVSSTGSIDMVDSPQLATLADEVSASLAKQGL

SMILES	Potency	activity, negative = inhibition
Cn1ccc(=NC=C(C#N)C#N)c2ccccc21	inconclusive: 15.8 µM [inhibitor, partial curve]	
Cc1cc2cc(C)c3nnc(SCC(=O)NCc4ccco4)n3c2cc1C	inconclusive: 28.2 µM [inhibitor, partial curve, poor fit]	
COC(=O)c1ccccc1NC(=O)CSc1nc(=O)cc(N)n1-c1ccccc1	inconclusive: 35.5 µM [inhibitor, single point]	
CCOc1ccc(CCNC(=O)CCCc2nnc3n(CC)c(=O)c4sccc4n23)cc1OCC		inactive: -10.1%
O=[N+]([O-])c1ccc(N=Nc2ccc(O)cc2O)cc1	active: 2.51 µM	
CC(=O)N1CCn2c3ccc(C)cc3c3cccc1c32	inconclusive: 8.91 µM [inhibitor, partial curve]	
O=[N+]([O-])c1ccc(CSc2ccc(-c3ccccn3)nn2)cc1	inconclusive: 3.16 µM [inhibitor, full curve]	
CCOC(=O)c1cc(=O)n2[nH]c(-c3ccc(C)cc3)cc2n1	inconclusive: 7.08 µM [inhibitor, partial curve, poor fit]	
Cc1ccc(C(=O)N2CCOCC2)cc1Cl		inactive: -2.63%
COc1ccccc1NC(=O)c1oc2ccccc2c1NC(=O)Cc1cccs1		inactive: 0.906%
O=C(NCCN1CCCCCC1)C1CCC(CNS(=O)(=O)c2cccc3cccnc23)CC1 (stereo not drawn)	inconclusive: 39.8 µM [inhibitor, single point]	
CCCCc1c(C)c(C#N)c2nc3ccccc3n2c1Nc1c(C)n(C)n(-c2ccccc2)c1=O	inconclusive: 31.6 µM [inhibitor, partial curve]	
N=c1n(CCN2CCCC2)c2ccccc2n1CC(O)c1ccco1 (stereo not drawn)		inactive: -9.24%
O=C(CCc1ccccc1)NCc1ccc2c(c1)CCN2C(=O)c1ccccc1		inactive: -2.41%
N#CC1=C(N)C(C#N)(C#N)C2(C(=O)Nc3ccccc32)C2CCCC=C12 (stereo not drawn)	inconclusive: 25.1 µM [inhibitor, single point]	
Cc1ccnc(N2CCN(C(=O)CSc3nc4ccccc4nc3N3CCC(C)CC3)CC2)c1		inactive: -18.9%
CCOC(=O)C1CCN(CC(O)COc2ccc(C(=O)CC)cc2)CC1 (stereo not drawn)	inconclusive: 12.6 µM [inhibitor, partial curve]	
Cc1ccc(-c2nc3cc(NC(=O)Cc4ccc(Cl)cc4)ccc3o2)cc1		inactive: -0.307%
COc1ccc(Sc2ccc(/C=C3\C(=O)NN(c4ccccc4)C3=O)o2)cc1	active: 10 µM	
CCn1c(SCC(=O)NCc2ccccc2)nc2c(c1=O)SC(C)C2 (stereo not drawn)		inactive: -16%
Cc1ccccc1Oc1nc2ccccn2c(=O)c1/C=C(\C#N)C(=O)Nc1c(C)n(C)n(-c2ccccc2)c1=O		inactive: -10.9%
COc1cc(/C=N/NC(=Nc2ccc(C)cc2)c2nc3ccccc3s2)ccc1O	inconclusive: 25.1 µM [inhibitor, partial curve]	
O=C(COC(=O)c1cc(-c2cccc(Br)c2)nc2ccccc12)NCC1CCCO1 (stereo not drawn)	inconclusive: 28.2 µM [inhibitor, partial curve]	
CCc1ccc(/C=N/NC(=S)NCCc2ccccc2)cc1		inactive: -6.38%
CCc1c(C)sc(NC(=O)c2cccs2)c1C(N)=O	inconclusive: 31.6 µM [inhibitor, partial curve]	

SMILES	Potency	activity, negative = inhibition
O=C(NCc1n[nH]c(=S)n1-c1cccc(C(F)(F)F)c1)c1ccc(S(=O)(=O)N2CCCC2)cc1		inactive: -1.01%
CC(C)C[C@H](NC(=O)c1nc[nH]c1C(=O)N1CCN(c2ccccc2)CC1)C(=O)OC(C)(C)C		inactive: -0.648%
Cc1nn(Cc2ccc(Cl)cc2)c(C)c1NC(=O)c1cc(-c2ccco2)on1		inactive: -5.59%
CCC(NC(C)C)C(O)c1ccc(O)c(O)c1 (stereo not drawn)	inconclusive: 17.8 µM [inhibitor, partial curve, poor fit] and inconclusive: 14.1 µM [inhibitor, partial curve]	
COc1ccc(CCNc2ncnc3onc(-c4ccc(Cl)cc4)c23)c(OC)c1		inactive: -0.33%
CCc1ccc(NC(=O)CN2C(=O)C3CCCN3c3ccc(S(=O)(=O)N(CC)CC)cc32)cc1 (stereo not drawn)		inactive: -11.6%
O=C1NC[C@H](Cc2ccc(O)cc2)N(CCc2cccc3ccccc23)C1=O	inconclusive: 44.7 µM [inhibitor, single point]	
Cc1cccc(OCC(=O)Nc2ccc(S(=O)(=O)Nc3onc(C)c3C)cc2)c1C	inconclusive: 31.6 µM [inhibitor, single point]	
COc1ccc(CNCCC(c2ccc(C)cc2)c2ccco2)cc1 (stereo not drawn)		inactive: -6.01%
COc1ccc(-n2nc(C(=O)NCC(=O)N3CCN(c4ccccn4)CC3)c3ccccc3c2=O)cc1OC		inactive: -2.41%
CCOC(=O)c1nc(Nc2ccc(Nc3ccccc3)cc2)c2ccccc2n1	active: 5.01 µM	
COc1cc(-n2nc(C)c3c2OC(N)=C(C#N)C3c2ccccc2)c(Cl)c(Br)c1O (stereo not drawn)	active: 3.55 µM	
CCOC(=O)C1CCCN(CC(=O)NC2CC2)C1 (stereo not drawn)		inactive: -10.6%
COc1cc(-c2nnc3sc(C4CCCCC4)nn23)cc(OC)c1OC	inconclusive: 35.5 µM [inhibitor, single point]	
COc1cc(/C=C2\SC(=Nc3ccc(O)cc3)NC2=O)cc(OC)c1O	inconclusive: 2 µM [inhibitor, full curve]	
O=C(c1ccco1)n1nc(-c2ccco2)nc1SCc1ccccc1	inconclusive: 1.78 µM [inhibitor, full curve]	
CN(Cc1ccccc1)c1c([N+](=O)[O-])c(=O)n(C)c2ccccc12	inconclusive: 10 µM [inhibitor, partial curve]	
COC/C=C/C1=CC2=CC(=O)C(C)(OC(=O)c3cnc4ccccc4n3)C(=O)C2=CN1C1CC1 (stereo not drawn)	inconclusive: 8.91 µM [inhibitor, single point]	
Cc1cc(OCC(=O)N(Cc2ccc(N(C)C)cc2)Cc2ccco2)cc(C)c1Cl	inconclusive: 17.8 µM [inhibitor, single point]	
Cn1cc(/C=N/NC(=O)c2ccc(C#N)cc2F)c2ccccc21	inconclusive: 15.8 µM [inhibitor, partial curve]	
COc1ccc2oc(=O)c(C(=O)NCCc3c(C)[nH]c4ccc(C)cc34)cc2c1	inconclusive: 3.98 µM [inhibitor, full curve]	
CCCNC(=O)Cn1nc(-c2ccc(C)c(C)c2)c2cnc3ccc(OC)cc3c21	inconclusive: 10 µM [inhibitor, partial curve]	
CN1CCc2cccc3c2[C@H]1Cc1ccc(O)c(O)c1-3	active: 22.4 µM and active: 14.1 µM and active: 17.8 µM	
Cc1c(C(=O)c2ccc(F)cc2)c2ccccn2c1CCc1ccccn1		inactive: -18.1%
CN(c1ccccc1)S(=O)(=O)c1cccc(C(=O)NCCc2ccc(O)c(O)c2)c1	inconclusive: 25.1 µM [inhibitor, partial curve]	

SMILES	Potency	activity, negative = inhibition
Cc1ccc(-c2cc(C(=O)Nc3cccnc3)[nH]n2)c(O)c1C	inconclusive: 1.78 µM [inhibitor, full curve]	
COc1ccccc1-c1nc2c(c(SCc3cc(C)ccc3C)n1)Cc1c(CO)cnc(C)c1O2	inconclusive: 12.6 µM [inhibitor, partial curve]	
CCN(C(=O)COC(=O)c1cc(NS(=O)(=O)c2ccc(Cl)c([N+](=O)[O-])c2)ccc1O)C1CCCCC1	inconclusive: 17.8 µM [inhibitor, partial curve]	
COc1cc(/C=C(\C#N)c2nc3ccccc3s2)cc([N+](=O)[O-])c1O	active: 1.41 µM	
CC(=O)N1CCN(c2ccc(NC(=O)c3ccc(C(C)(C)C)cc3)cc2)CC1	active: 3.55 µM	
Cc1ccc(C(=O)Nc2cccc([N+](=O)[O-])c2)cc1S(=O)(=O)Nc1ccc(NC(=O)c2ccccc2)cc1		inactive: -16.2%
CCOc1ccc(NC(=O)c2ccccc2CO)cc1		inactive: -11.3%
O=C(O)CSc1nnnn1C1CCCCC1		inactive: -2.7%
Cc1cc(C)nc(NN=C2CCCC2)n1	inconclusive: 25.1 µM [inhibitor, single point]	
COc1ccccc1C(=O)NCC(=O)OCC(=O)c1ccc2c(c1)-c1ccccc1C2	inconclusive: 0.562 µM [inhibitor, full curve]	
Nc1ccc2oc(-c3ccccc3Br)nc2c1	inconclusive: 17.8 µM [inhibitor, partial curve]	
CNC(CC(=O)O)C(=O)O (stereo not drawn)		inactive: 6.76%
Cc1nc2ccccc2cc1OCc1ccccc1		inactive: -12.1%
COC(=O)c1ccc(SCC(=O)NC2CCCC2)c([N+](=O)[O-])c1		inactive: -5.78%
CCOC(=O)c1cc(-c2ccc(N3CCOCC3)cc2)nn1-c1ccccc1		inactive: -16.8%
CCOc1ccc(OCCSc2nc3ccccc3[nH]2)cc1	inconclusive: 5.01 µM [inhibitor, full curve]	
O=[N+]([O-])c1cc(S(=O)(=O)Nc2cccc(Cl)c2)ccc1N/N=C/c1ccc(N2CCOCC2)cc1	inconclusive: 8.91 µM [inhibitor, single point]	
CC(C)OC(=O)c1c(NC(=O)Cn2cnc([N+](=O)[O-])n2)sc2c1CCCC2		inactive: 12.1%
CCn1c(CSc2nnc(-c3ccncc3)n2C)nc2cc(C(=O)O)ccc21		inactive: -19.6%
COc1ccc2c(c1)-c1c(sn(-c3ccc(OC)c(OC)c3)c1=S)C(C)(C)N2	inconclusive: 10 µM [inhibitor, partial curve]	
COc1ccccc1/C=C/c1onc(C)c1S(=O)(=O)N1CCC(C(=O)N2CCC(C)CC2)CC1		inactive: -12%
CCc1nnc(NC(=O)CSc2nc3c([nH]c4ccccc43)c(=O)n2-c2ccc(F)cc2)s1		inactive: 0.435%
CC(C)C(=O)NC(=S)/C=C1/N(C)c2ccccc2C1(C)C	inconclusive: 25.1 µM [inhibitor, partial curve]	
